Results reported in the supplement of paper PMC3334620.
Whole data set: some 33,000 sequences, median “E-score (-0.5 to 0.5)” near -0.035, cut for the highest 2% near 0.35. This is one part of the list.

molecular target: T1, Pdr3 (UniProt P33200); assay: PBM E-score (8-mer binding enrichment) (E-score (-0.5 to 0.5)); higher = stronger / more preferred TF binding; most listed sequences are background and not binding sites; settings: protein concentration: 200 nM; construct: GST-full length
T1 sequence: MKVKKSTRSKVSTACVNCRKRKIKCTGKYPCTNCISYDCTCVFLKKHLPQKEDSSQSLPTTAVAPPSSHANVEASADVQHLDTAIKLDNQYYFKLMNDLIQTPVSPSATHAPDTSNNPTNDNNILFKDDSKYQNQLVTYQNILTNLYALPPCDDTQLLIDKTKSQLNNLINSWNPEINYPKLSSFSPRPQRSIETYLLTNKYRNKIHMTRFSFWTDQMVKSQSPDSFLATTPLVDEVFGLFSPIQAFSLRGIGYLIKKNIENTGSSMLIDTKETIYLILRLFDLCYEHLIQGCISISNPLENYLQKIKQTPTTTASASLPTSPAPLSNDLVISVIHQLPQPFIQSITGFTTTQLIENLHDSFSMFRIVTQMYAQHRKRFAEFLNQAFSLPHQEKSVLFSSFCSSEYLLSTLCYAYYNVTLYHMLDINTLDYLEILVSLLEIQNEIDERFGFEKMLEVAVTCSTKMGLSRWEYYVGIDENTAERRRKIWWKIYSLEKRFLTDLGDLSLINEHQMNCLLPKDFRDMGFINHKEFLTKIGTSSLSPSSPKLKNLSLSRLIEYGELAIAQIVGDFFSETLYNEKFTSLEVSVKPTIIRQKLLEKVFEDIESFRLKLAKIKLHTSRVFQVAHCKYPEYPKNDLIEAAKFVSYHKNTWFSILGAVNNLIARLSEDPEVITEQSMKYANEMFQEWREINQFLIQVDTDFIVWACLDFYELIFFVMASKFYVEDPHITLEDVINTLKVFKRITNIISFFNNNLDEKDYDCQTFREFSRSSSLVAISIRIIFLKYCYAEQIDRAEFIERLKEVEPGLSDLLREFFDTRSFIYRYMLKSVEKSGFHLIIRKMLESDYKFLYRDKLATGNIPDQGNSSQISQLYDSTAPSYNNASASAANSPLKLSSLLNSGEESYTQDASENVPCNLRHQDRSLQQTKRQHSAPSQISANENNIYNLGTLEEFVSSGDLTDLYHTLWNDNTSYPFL
Protocol: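 Universal 'all 10-mer' protein binding microarrays (Agilent AMADID 015681) probed with GST-tagged S. cerevisiae TFs (full-length or DBD) made by in vitro transcription/translation (PURExpress), about 100-200 nM. Bound TF was detected with fluorescent anti-GST. Each ungapped 8-mer (which stands for itself and its reverse complement) is scored by the PBM enrichment score (E-score), a modified Wilcoxon-Mann-Whitney statistic from -0.5 to +0.5, computed with the Universal PBM Analysis Suite. Scale: above 0.35 generally sequence-specific binding.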

Sequence	PBM E-score
GGTCAAAC	0.0507
CCCTCGCA	0.0287
GCAACTGA	-0.0168
GTCGGAAC	0.458
GCTCAGAA	-0.0989
CGGCGTAA	-0.0269
CTCATACA	-0.0276
AATTCCAA	-0.0365
CTTCCAGA	-0.184
AAACAGAA	-0.123
CCTCACTA	-0.00189
ATCGGCCC	0.113
TATTAGGA	-0.0995
TAAGGCTA	-0.326
AAGAGATT	0.0875
GCGACGAA	0.0699
ACGTAAAA	-0.153
CCTTTAAA	-0.252
AAGCAATG	0.0274
CCCTTGTC	-0.068
GGAGATAA	0.128
ATAGTGCC	-0.00647
CCGCACGC	0.0615
ACCTTACA	-0.145
ATCGGAAT	0.43

Sequence	PBM E-score
CCTCTGGA	-0.00689
ACATAAGG	0.0436
GCCTGTCA	-0.155
GGACGGTA	0.118
AGGACGAT	-0.0922
AGGAACCG	0.123
CACGCGAC	-0.00486
CGCGCATA	0.136
GGTTACTA	-0.0887
AACACATC	0.073
ATCCGACG	0.259
AGAGCGCT	-0.163
AACTGACG	-0.139
CCGTTCGC	0.15
AGTTGAAG	-0.118
CCGCAGCC	0.238
CACATAAC	-0.108
ACACCCTA	-0.144
AAGCAACC	0.0343
ACTTCCAT	0.231
GGGTCCTA	-0.103
CATTGACC	-0.0462
CGACAACA	0.0728
ATTTTCCA	0.122
GGTCGCAC	-0.00106

Sequence	PBM E-score
CTTCATAA	0.0224
CCACTAGG	-0.207
AATACCGC	0.227
TGCCCGAA	0.0367
GAGAAGCC	0.0255
ACGCCTTA	-0.162
GTATCCGA	0.263
CCACGGAA	0.484
GAAGTCGC	0.0394
GAGCTACC	-0.0837
GCTGTGCC	0.0656
CCAATAAG	-0.255
AGTTCGAA	0.0494
CTTCGGTA	-0.0957
GCCTCTTA	-0.109
GTAACAAA	-0.0631
CACTGACC	0.0213
CTCTCAAC	-0.0299
AGAGGATG	0.0386
AACACAGG	-0.125
ACCTCACG	-0.0493
GGTATCGA	0.0822
CTAATGCC	-0.0212
CGTGAACC	0.117
ACCGTATC	0.0549

Sequence	PBM E-score
CATATAAG	-0.124
CGATTACC	0.191
AGGCTAAG	-0.257
AGACAAAT	-0.196
CTTCGCTA	-0.115
TCAGAGAA	-0.289
ATTAGTTA	0.135
CAGCCGAC	0.00823
TCCTTAGA	-0.274
CACGTCCA	-0.297
AGACCTGA	-0.0321
ATCGCGCA	-0.0525
GAACACAA	-0.0931
GTCATCAC	-0.119
GCCTCTCC	-0.0616
AATATTAG	-0.051
ATGCTGAA	-0.0375
AAGCCATC	-0.0284
ACAGTAGG	-0.203
AGCGCACG	-0.0412
ATTCAGTG	0.0778
AGACTATC	-0.225
TAGGGAGA	0.036
AGGCGTGC	-0.104
GAGGGAGC	-0.0208

Sequence	PBM E-score
CCGGCGAG	0.261
AGGTTTAA	-0.135
CGTCAGTA	-0.0798
AAAACGAG	-0.142
ATCCCCTG	-0.191
ACTGCTTG	-0.233
ACTACAGA	0.0418
TGATATAA	-0.198
GTTGCCCA	0.0279
AGCTTGTG	-0.0685
GTGCTACA	-0.38
GGATCCCC	0.25
CATCTGCA	-0.0227
CTTGGCCC	-0.258
ATACTCCC	0.127
AAGTAGTA	-0.0848
CGCGAATC	0.0604
ACCAAGAA	0.029
TTCGAAAA	0.0229
ATTTAGCA	-0.0254
TAGCAGAA	0.018
AGGATGAG	-0.125
ACGTGGAA	-0.0114
AGGGAGAC	-0.0867
CCTCTGGC	-0.0661

Sequence	PBM E-score
GCAGAGCC	-0.071
CTATTGCC	-0.0815
AACACTGA	0.0985
AACGGAAG	0.423
CCGTTCAA	0.203
GTAATCCA	-0.0176
AGAATCAA	0.00275
CCGAAACC	-0.0197
ACTCCATG	-0.0644
CACGCTAG	-0.154
AACTCATC	0.0776
GGGCTAAC	-0.148
CGGCGTGC	0.12
CACAACCA	0.0804
TACATCAA	-0.104
AGATTTGG	-0.159
CCGACTCG	0.05
AAGCGGCG	0.0462
GAGTGGGC	-0.0819
AATTCTGC	0.117
GCCAGCGA	-0.0413
AGACCACT	-0.153
AATAAGTC	-0.111
AACTTATT	0.141
AACGGTTA	-0.0313

Sequence	PBM E-score
ACACTAGC	-0.0588
ATGGGGCC	-0.161
AACAGAGA	0.0504
CTATGTTC	0.0801
CAATGAAG	-0.282
AATAGTAT	0.2
CCATCAAC	-0.0684
CACTTCGC	-0.165
GCCTGTAC	-0.0601
CCGGCTCG	0.331
CGACGAGA	-0.127
CATGAAAA	-0.0962
GGGAACCC	0.133
AACTGTAG	-0.124
AAGTATCC	0.0359
CGGACACG	0.335
AAATACAA	0.0586
CGGGGGTC	0.00801
ACAAACAA	-0.162
CTGCATCC	0.0477
ATATATTC	0.226
CAGTCATC	-0.077
